We go through 67 sequences from the supplement of paper PMC10126150.

Values marked as one replicate rest on one cluster of the flow cell; about a third of the high ones do not repeat.
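Also: ATP exposure 15 min at 22 °C before imaging.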

In this data set the test system is ATP. As to the kind of experiment: switch fluorescence ratio, 500 uM ATP over buffer (Cy3 cluster intensity, sum of 5 cycles each) (fold (ratio)); higher = stronger signal-on switching upon ATP binding; sequences stand for … in TCGTCGGCAGCGTCAGATGTGTATAAGAGACAGTTTTTTTTTTTTTTTTTTTTTTTTT…TC. Particulars: aptamer strand: ATP DNA aptamer (quencher-CACCTGGGGGAGTATTGCGGAGGAAGG + anchor), 100 nM annealed; ATP concentration: 500 uM; one replicate. The gist of the method:
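Clusters with intensities outside 100-1000 RFU were excluded. The remaining Cy3-labelled switching-strand clusters on a modified Illumina MiSeq flow-cell had been annealed to 100 nM quencher-labelled ATP aptamer and imaged in selection buffer, then after 15 min with 500 uM ATP at 22 °C, for five cycles separated by NaOH stripping and re-annealing. The fluorescence ratio, averaged per switch-domain sequence, is each cluster's summed target-cycle Cy3 intensity over its summed buffer-cycle Cy3 intensity.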
Turning to AAACTTGGCC, the switch fluorescence ratio was determined as 0.981.

Turning to CGTAATAGTA, the switch fluorescence ratio stood at 1.18.

Take GGCCACACAT: the switch fluorescence ratio stood at 1.01. As for TGAGTTTCGT, the switch fluorescence ratio was 0.972. To TTTATGAATA belongs 0.99.

On to GAGTCCGGCG, for which the switch fluorescence ratio came out at 0.994. ATGTAGGTG: the switch fluorescence ratio came to 1.09.

As to ATCTGAAGGC, the switch fluorescence ratio is 1.02. In the case of ATATCATGTA it was 0.941; in that of TAAACGTCGG, 0.991. In the case of AGATGGGCGC it was 1.05; in that of AAAATACGGT, 1.02; in that of ACCAGTGGTA, 1. To GGATGGTA belongs 1.01; to GGTGTCTAG, 1.04.

As for CCGTTCCGTT, the switch fluorescence ratio was 1.11.

Consider AAGGCGAGTT, for which the switch fluorescence ratio stood at 1.01. Regarding TCAATGTGAG, the switch fluorescence ratio is 0.968. To CAGTGTCAGT belongs 0.952; to GTTCCAGTTA, 0.982.

Turning to CGTATAATTA, the switch fluorescence ratio came to 1.05. In the case of GCCGGGTGCT it was 1; in that of GTCGGGTTCG, 0.961; in that of CATACGGTCG, 1.06.

As for AAAGCTCCTT, the switch fluorescence ratio was found to be 1.03.

For the sequence CTTGGACGAA, the switch fluorescence ratio came out at 0.952. To GCTGTGGGTT belongs 0.972; to GCGCCCACGG, 0.988; to CACACAAGCG, 1. To CCGGGTCCCA belongs 1.1. In the case of CAATTTTAGC it was 1.01; in that of TTGGGCCAAT, 0.969; in that of CAGTCTGGAA, 1.05.

GTTTGCCGGC: the switch fluorescence ratio was 1.03. In the case of CTATTCTTTG it was 0.988; in that of CTTACACAAC, 1.17; in that of GCCTGGCATG, 0.992. In the case of GCCGTCAGTA it was 1.03.

For GAGCCTACCA, the switch fluorescence ratio turned out to be 1.05. As for CTACTTGTGG, the switch fluorescence ratio was 0.958. In the case of TGGTTCGAGT it was 1; in that of GATGGTAGTA, 0.992.

Take TTCGGTTGCT: the switch fluorescence ratio is 0.948. To GGAAAGTCG belongs 0.999; to CGGTATGGTG, 1.16; to GCGTGAATAC, 5.39. To AAAAAGGATG belongs 1.01.

ATCAGGATT: the switch fluorescence ratio stood at 1.02. As for GATAGGGGA, the switch fluorescence ratio was 0.998.

For the sequence GACTTTTCTC, the switch fluorescence ratio came to 1.01. With GGGCAGATA, the switch fluorescence ratio stood at 1.01. On to CTAACTTGGG, for which the switch fluorescence ratio is 0.993. Consider CTACCTAGGC, for which the switch fluorescence ratio was 1.08. In the case of CCACTGGATA it was 1.04; in that of CACACAGAGC, 1.06; in that of GAACCTGGGC, 1.03. In the case of TCTATGACCT it was 1.2; in that of TACGGGTGGC, 1.01. In the case of GGCTGCCCTG it was 1.01; in that of GAATAAGTGC, 1.03; in that of CAGTCAGTTC, 1.03. For the sequence ACTACTTTC, the switch fluorescence ratio amounted to 1.08. In the case of AAGTAGCGGT it was 0.962; in that of AAGCATAAAT, 0.968. To TCACACTAAA belongs 1.04. As to AGTGGCCGT, the switch fluorescence ratio was found to be 0.959. TGACGCTCTT: the switch fluorescence ratio turned out to be 0.987.
